# Laboratory results as given in PubChem BioAssay AID602233 (National Center for Advancing Translational Sciences (NCATS), 2012).
# The campaign covered roughly 380,000 compounds. About 170 (0.045%) were called active. This list was built around the results that the source calls inconclusive (neither active nor inactive); the mix of calls is not that of the screen. The call rests on the fitted dose curve; in most records, active means well fitted inhibition curve with a large enough effect; inconclusive means small, poorly fitted or top-dose-only effect; inactive means no such curve, though single readings can be large or run the other way. Potencies of inconclusive entries are left out as doubtful fits.
# Molecular target: Phosphoglycerate kinase, glycosomal (Trypanosoma brucei brucei) (UniProt P07378)
# Assay: qHTS Assay to Find Inhibitors of Phosphoglycerate Kinase; further: nearly all actives have a fitted effect of over 60% in size
# Conditions: PGK/GAPDH coupled, Kinase-Glo luminescence, 60 min; series mostly up to 57.5 µM; activity change, negative = inhibition: at the top concentration
# In short: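 Luminescent ATP detection (Kinase-Glo Plus) follows a 60-minute room-temperature incubation, with wells lacking PGK as controls. Buffer: 100 mM TEA (pH 7.6), 5 mM MgCl2, 0.01% Tween-20. Coupling enzyme GAPDH (100 nM final) supplies unstable 1,3-BPG in-well.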
# On the % scale 0 is the no-effect control and ±100 the full control effect; potency means the concentration at half of the fitted maximal effect; tags describe the fitted curve by direction and shape.
SMILES,outcome,"activity change, negative = inhibition",Potency
CCOC(=O)C1C(C(=O)OC)=C(c2ccc(OC)cc2)c2ccccc2N1S(=O)(=O)C(F)(F)F (stereo not given),inactive,–,–
CN1C(=O)N(C)c2ccc(C=O)c3cccc1c23,–,inactive: -7.09%,–
COc1cccc(NC(=O)n2ncc3c(C)cccc32)c1,–,–,"inconclusive [inhibitor, partial curve, poor fit]"
COc1ccc(CCN2C(=O)CC(C(N)=O)SC2=Nc2ccccc2)cc1 (stereo not given),–,–,"inconclusive [inhibitor, partial curve, poor fit]"
Cc1ccc(C(=O)Nc2nnc(CC(=O)N/N=C/c3ccc(O)c(O)c3)s2)cc1,–,–,"inconclusive [inhibitor, full curve, poor fit]"
CCCCOc1ccc(/C=N/Nc2cc(N3CCOCC3)nc(C)n2)cc1,–,inactive: -1.16%,–
NC(=S)n1[nH]c(-c2ccc([N+](=O)[O-])cc2)c(N=Nc2cccc([N+](=O)[O-])c2)c1=O,–,–,"inconclusive [inhibitor, partial curve]"
O=S1(=O)c2ccccc2C(O)(c2ccccc2)c2ccccc21,–,inactive: 10.8%,–
Cc1cncn1CCc1nc2c3ccccc3nc(SCC(=O)Nc3ccc(F)cc3)n2n1,–,–,"inconclusive [inhibitor, full curve, poor fit]"
CN1CCN(C(c2ccccc2)c2ccc(Cl)cc2)CC1 (stereo not given),–,inactive: 5.64%,–
COc1ccc2c(c1)c(=O)oc1cc(OCC(=O)N3CCC(C)CC3)ccc12,–,–,"inconclusive [inhibitor, partial curve, poor fit]"
CCN(CC)CCCNc1nc(-n2nc(C)cc2C)nc2sc3c(c12)CC(C)(C)OC3,–,inactive: 8.07%,–
Cc1csc2c(=O)sc(NC(=O)c3cccs3)nc12,–,–,"inconclusive [inhibitor, partial curve, poor fit]"
Cc1c(NS(=O)(=O)c2cc(C(=O)NCCN(C)C)ccc2Cl)c(=O)n(-c2ccccc2)n1C,–,–,"inconclusive [inhibitor, single point]"
O=C(COC(=O)/C=C/c1ccco1)Nc1ncc(C(F)(F)F)cc1Cl,–,–,active: 12.6 µM
O=C(N/N=C/c1cccn1-c1cccc(C(=O)O)c1)Nc1ccccc1,–,–,"inconclusive [inhibitor, single point]"
CCOc1ccc(/C=C(\C(=O)O)c2ccc(S(=O)(=O)N3CCOCC3)s2)cc1OC,–,inactive: 2.68%,–
CCOc1ccc2c(c1)c(N=O)c(O)n2C,–,inactive: 0.0027%,–
O=C1C=CC(=O)c2c(O)c(CO)c(CO)c(O)c21,–,–,active: 8.91 µM
CCN(CC)c1ccc(NC(=O)CCS(=O)(=O)c2ccc(Br)cc2)c(C)c1,–,–,"inconclusive [inhibitor, partial curve, poor fit]"
CCc1cc(=O)oc2c(C)c(O[C@@H]3O[C@H](CO)[C@@H](O)[C@H](O)[C@H]3O)ccc12,–,–,"inconclusive [inhibitor, single point]"
COc1ccc(Br)cc1C1CC(=O)N2CN(C)CSC2=C1C#N (stereo not given),–,inactive: -3.74%,–

SMILES,outcome,"activity change, negative = inhibition",Potency
COc1ccccc1NC(=O)Nc1nc(CC(=O)Nc2cccc(F)c2)cs1,–,inactive: 3.03%,–
CCc1ccc(/C=C2/Sc3ccccc3N(CC(=O)NCCCN3CCOCC3)C2=O)cc1,–,inactive: -3.51%,–
COc1ccc(C2=CC3=C(Br)C(=O)C(C)(OC(=O)c4ccc(Cl)nc4)C(=O)C3=CO2)cc1 (stereo not given),–,–,"inconclusive [inhibitor, partial curve, poor fit]"
O=C(NN1C(=O)/C(=C/c2ccc(O)c(O)c2)SC1=S)c1ccccc1,–,–,"inconclusive [inhibitor, partial curve]"
O=C(O)c1ccc(-n2cccc2/C=C2/SC(=O)N(CC(=O)N3CCCC3)C2=O)cc1,–,–,"inconclusive [inhibitor, partial curve]"
NC(=O)c1cc[n+](CC2=C(C(=O)O)N3C(=O)[C@@H](NC(=O)C(c4ccccc4)S(=O)(=O)[O-])[C@H]3SC2)cc1 (stereo not given in full),–,–,active: 1.12 µM
O=C(NC(=S)NCCC1=CCCCC1)c1ccccc1Br,–,–,"inconclusive [inhibitor, partial curve, poor fit]"
O=C(O)c1cccc(NC(=S)NC(=O)c2ccc(-c3ccc(Cl)cc3)o2)c1,–,–,"inconclusive [inhibitor, partial curve, poor fit]"
Cc1cccn2c(=O)cc(CSc3nnc(NC(=O)COc4ccccc4)s3)nc12,–,–,"inconclusive [inhibitor, partial curve, poor fit]"
NCC(O)c1ccc(O)c(O)c1 (stereo not given),–,–,"inconclusive [inhibitor, partial curve, poor fit]"
Nc1nc(N2CCN(C(=O)c3ccco3)CC2)nc2ccc(Br)cc12,–,–,active: 8.91 µM
COCc1c(C(=O)N2CCc3ccccc32)oc2ccccc12,–,–,"inconclusive [inhibitor, full curve, poor fit]"
Cc1cccc(C(=O)Nc2ccc(N3CCC(N4CCCCC4)CC3)c(C(=O)O)c2)c1,–,–,"inconclusive [inhibitor, partial curve, poor fit]"
CCCc1nc2c(=O)n(C)c(=O)nc-2n(C)n1,–,–,"inconclusive [inhibitor, full curve]"
O=C(O)c1cc(-c2ccco2)nn1-c1ccc(Cl)cc1,–,–,"inconclusive [inhibitor, single point]"
C=CCn1c(SCC(=O)Nc2sc3c(c2C#N)CCC(C)C3)nc2cc(C(=O)O)ccc2c1=O (stereo not given),–,–,"inconclusive [inhibitor, full curve, poor fit]"
COc1ccc(/C=N/N=C2/NC(=O)C(CC(=O)O)S2)cc1OCc1ccccc1Cl (stereo not given),–,–,"inconclusive [inhibitor, partial curve, poor fit]"
Cc1csc(NC(=O)c2sccc2C)n1,–,–,"inconclusive [inhibitor, partial curve, poor fit]"
COc1ccccc1CC(=O)Nc1ccccc1C(=O)O,–,–,"inconclusive [inhibitor, partial curve, poor fit]"
Cc1ccc(-c2cc(C(=O)NCc3ccco3)c3ccccc3n2)o1,–,–,"inconclusive [inhibitor, partial curve, poor fit]"
CN(c1ccccc1)S(=O)(=O)c1ccc(Cl)c(C(=O)OCC(=O)NCc2ccco2)c1,–,–,"inconclusive [inhibitor, partial curve]"
Nc1ccc(-c2nc3ccc(C(=O)O)cc3s2)cc1,–,–,"inconclusive [inhibitor, partial curve, poor fit]"

SMILES,outcome,"activity change, negative = inhibition",Potency
O=C(Nc1ccc(-c2nc3ccccc3s2)c(O)c1)C1=COCCO1,–,–,"inconclusive [inhibitor, partial curve, poor fit]"
Oc1cc2c(cc1O)[C@H]1c3ccc(O)c(O)c3OC[C@@]1(O)C2,–,–,"inconclusive [inhibitor, single point]"
CC(CO)Nc1nc(SCc2ccccc2)nc2sc3c(c12)CCC3 (stereo not given),–,–,"inconclusive [inhibitor, partial curve, poor fit]"
Cc1ccccc1OCCOC(=O)c1cc(S(=O)(=O)N2CCCCC2)ccc1N1CCOCC1,–,–,"inconclusive [inhibitor, partial curve, poor fit]"
O=C(NC(=O)N1CCN(c2cccc(Cl)c2)CC1)c1ccccc1,–,–,"inconclusive [inhibitor, partial curve, poor fit]"
Cc1occc1C(=O)Nc1cc(C(C)(C)C)on1,–,–,"inconclusive [inhibitor, single point]"
COc1cc(C(=O)OCc2cc(=O)n3ccsc3n2)cc(OC)c1OC,–,inactive: -2.7%,–
COCCNc1nc2nonc2nc1N1C[C@H]2CC[C@H]1C2,–,inactive: -6.98%,–
Cc1ccc(C(c2cc(Cl)c3cccnc3c2O)N2CCN(C)CC2)cc1 (stereo not given),inactive,–,–
CC(=O)NN1C(=O)/C(=C/c2ccc(Br)o2)SC1=S,–,–,"inconclusive [inhibitor, single point]"
O=C(/C=C/c1ccc(O)c(O)c1)OC(Cc1ccc(O)c(O)c1)C(=O)O (stereo not given),–,–,"inconclusive [inhibitor, partial curve]"
COC(=O)CC1Oc2ccc(Cl)cc2-n2cc(-c3ccc(C)cc3)nc21 (stereo not given),–,inactive: -5.31%,–
COc1ccc(NC(=O)C2CCCN(S(=O)(=O)c3cccnc3)C2)cc1OC (stereo not given),inactive,–,–
CCCOc1ccc2cc(-c3ccccn3)c(=O)oc2c1,–,–,"inconclusive [inhibitor, partial curve]"
O=[N+]([O-])c1cc(S(=O)(=O)Nc2cccc(Cl)c2)ccc1N=Nc1c(O)[nH]c2ccccc12,–,–,"inconclusive [inhibitor, partial curve]"
c1c2c(cc3sc(N4CCCCC4)nc13)OCCO2,–,–,"inconclusive [inhibitor, partial curve, poor fit]"
c1ccc2c(c1)Cn1c-2nc2ccccc21,–,–,"inconclusive [inhibitor, single point]"
COc1cc(/C=C2/C(=O)N(c3ccc(C(=O)O)cc3)N=C2C)cc(OC)c1O,–,–,"inconclusive [inhibitor, partial curve, poor fit]"
Cc1nonc1C(=O)N/N=C/c1ccc(O)cc1O,–,–,"inconclusive [inhibitor, single point]"
O=C(CCS(=O)(=O)c1ccc(Br)cc1)NCc1ccc(F)cc1,–,–,"inconclusive [inhibitor, partial curve, poor fit]"
COc1ccc(CNC(=O)COC(=O)c2ccc(S(=O)(=O)NCc3ccco3)cc2)cc1,–,–,"inconclusive [inhibitor, partial curve]"
